One molecule from doi:10.1101/2023.06.21.545551 (2023) can be followed below.

The assay deals with MYC(203–255) (human). Briefly: NMR.

B1: MYC([…]):MAX([…]) heterodimer (complex)
chain 1: not shown
chain 2: not shown
For B1, binding was put at a Kd of 49 µM.

One may read the Kd as the free concentration of one partner at which half of the binding sites on the other are occupied at equilibrium, for simple one-to-one binding. Low readings indicate a tighter complex, high ones a looser complex.
